According to PubChem BioAssay (Tox21):
Several values for one entry are separate records, joined by “and”; a condition that tells them apart may be missing. Equal values may be shown once. The inconclusive results got no clear call from the source; some entries with a clear call stand among them for comparison. Where the call is inconclusive, the potency comes from a doubtful curve fit. The source holds several records for some structures; these can differ, active in one and inactive in another. Activity calls are given as the source filed them. Calls come from the whole dose curve; as a rule, active = well fitted curve in the direction sought with a large enough effect in the repeat runs; inconclusive = weak or mixed curves; inactive = no such curve, though single readings can be large; an effect the other way counts as inactive or inconclusive.
% is set by controls: 0 for no effect and ±100 for the full control effect; potency is the fitted concentration of half-maximal effect; tags give direction and shape of the fitted curve.

Experiment: A CellTox Green Cytotoxicity Assay to monitor cytotoxicity in HEK293 cells - 8 hour (AID 1224884); note: nearly all actives have a fitted effect of over 35% in size
Conditions: CellTox Green fluorescence; series mostly up to 76.8 µM; cytotoxicity increase: at the top concentration
In short: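 Homogeneous no-lysis format: HEK293 cell suspension mixed with CellTox Green reagent, seeded, incubated 5 h at 37 C/5% CO2, then dosed by pintool with compound in DMSO.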
For CCN(CC)c1c([N+](=O)[O-])cc(C(F)(F)F)c(N)c1[N+](=O)[O-], the “cytotoxicity increase” value was inactive: 12.8%.
With O=S(=O)(O)C(F)(F)C(F)(F)C(F)(F)C(F)(F)F the “cytotoxicity increase” value was inactive: -13.2%.
With C=CCOC(Cn1ccnc1)c1ccc(Cl)cc1Cl (configuration not stated) the Potency was inconclusive: 55.1 µM [activator, single point].
With CCCCCCCCCCCC[N+](C)(C)CCOc1ccccc1 the Potency was inconclusive: 26.8 µM [activator, single point].
For CCC(C)(C)O, the “cytotoxicity increase” value was inactive: 0.237%.
For Cc1c([N+](=O)[O-])cc2c(c1[N+](=O)[O-])C(C)(C)CC2(C)C, the Potency was inconclusive: 61.6 µM [activator, partial curve, poor fit].
With C[C@]12CCC(=O)C=C1CC[C@@H]1[C@@H]2CC[C@@]2(C)[C@H]1CC[C@]2(C)O the Potency was active: 44 µM.
With O=C(CCl)c1ccccc1 the Potency was inconclusive: 54.9 µM [activator, single point].

Experiment: qHTS RealTime-Glo MT Cell Viability Assay in HepG2 cells - 16 hour (AID 1224885); note: nearly all actives have a fitted effect of over 50% in size
Conditions: RealTime-Glo luminescence; series mostly up to 76.8 µM; activity change, negative = cytotoxic: at the top concentration
In short: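 HepG2 suspension premixed with RealTime-Glo reagents is plated at 600 cells per well and left 5 h at 37 C/5% CO2. Compounds in DMSO then go in, and bioluminescence reflecting viable cell number is recorded over 40 h.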
For CCN(CC)c1c([N+](=O)[O-])cc(C(F)(F)F)c(N)c1[N+](=O)[O-], the Potency was inconclusive: 54.9 µM [cytotoxic, single point].
With C/C(=C\c1ccccc1)[N+](=O)[O-] the Potency was inconclusive: 12.3 µM [cytotoxic, full curve].
With CN(C)C(=S)[S-].CN(C)C(=S)[S-].[Cu+2] the Potency was active: 3.77 µM.
In the case of Clc1ccc(CO/N=C(\Cn2ccnc2)c2ccc(Cl)cc2Cl)c(Cl)c1, the Potency is reported as active: 21.3 µM.
For N#CC(CCc1ccc(Cl)cc1)(Cn1cncn1)c1ccccc1 (configuration not stated), the Potency was active: 27.5 µM.
With C[C@]12C/C(=C/O)C(=O)C[C@@H]1CC[C@@H]1[C@@H]2CC[C@@]2(C)[C@H]1CC[C@]2(C)O the Potency was inconclusive: 49.4 µM [cytotoxic, single point].
In the case of CNC(C)Cc1ccccc1OC (configuration not stated), the “activity change, negative = cytotoxic” value is reported as inactive: 0.656% [at 35.3 µM].
With ClP(Cl)(Cl)(Cl)Cl the Potency was inconclusive: 55.3 µM [cytotoxic, single point].
With C[C@]12CCC(=O)C=C1CC[C@@H]1[C@@H]2CC[C@@]2(C)[C@H]1CC[C@]2(C)O the Potency was inconclusive: 44 µM [cytotoxic, partial curve, poor fit].
For CN1C[C@H](CNC(=O)OCc2ccccc2)C[C@@H]2c3cccc4c3c(cn4C)C[C@H]21, the Potency was inconclusive: 21.3 µM [cytotoxic, partial curve, poor fit].

Experiment: qHTS RealTime-Glo MT Cell Viability Assay in HEK293 cells - 24 hour (AID 1224886); note: nearly all actives have a fitted effect of over 50% in size; for activity change, negative = cytotoxicity: top concentration of the series differs between compounds
Conditions: RealTime-Glo luminescence; series mostly up to 76.8 µM; activity change, negative = cytotoxicity: at the top concentration
In short: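 Reads taken at 0, 8, 16, 24, 32 and 40 h from the same wells. HEK293 cells (600/well) carried RealTime-Glo reagents from seeding, with compound added after a 5 h settle at 37 C.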
In the case of O=S(=O)(O)C(F)(F)C(F)(F)C(F)(F)C(F)(F)F, the Potency is reported as inconclusive: 23.2 µM [cytotoxic, single point].
With Cc1cnc2c(C(=O)O)c(Cl)ccc2c1 the “activity change, negative = cytotoxicity” value was inactive: 8.85%.
In the case of C=CCOC(Cn1ccnc1)c1ccc(Cl)cc1Cl (configuration not stated), the Potency is reported as active: 24.6 µM and inconclusive: 24.5 µM [cytotoxic, partial curve] and inconclusive: 21.3 µM [cytotoxic, partial curve].
In the case of CC[N+]1(C)CCCC1, the Potency is reported as active: 24.6 µM.
In the case of C/C(=C\c1ccccc1)[N+](=O)[O-], the Potency is reported as inconclusive: 7.76 µM [cytotoxic, full curve, poor fit].
For O=C(CCl)C(Cl)Cl, the Potency was active: 17.5 µM.
With CCC(=O)C(CC(C)N(C)C)(c1ccccc1)c1ccccc1 (configuration not stated) the Potency was inconclusive: 22 µM [cytotoxic, full curve] and inconclusive: 38.6 µM [cytotoxic, partial curve] and inconclusive: 29.7 µM [cytotoxic, partial curve].
With COP(=S)(OC)Oc1ccc(Sc2ccc(OP(=S)(OC)OC)cc2)cc1 the Potency was inconclusive: 38.9 µM [cytotoxic, partial curve].
In the case of CC(c1ccccc1)(c1ccc(O)cc1)c1ccc(O)cc1, the Potency is reported as inconclusive: 43.6 µM [cytotoxic, partial curve].
For Nc1n[nH]c(N)n1, the Potency was inconclusive: 22.3 µM [cytotoxic, full curve].
With C[C@]12CCC(=O)C=C1CC[C@@H]1[C@@H]2CC[C@@]2(C)[C@H]1CC[C@]2(C)O the Potency was inconclusive: 19 µM [cytotoxic, partial curve].
In the case of CN1C[C@H](CNC(=O)OCc2ccccc2)C[C@@H]2c3cccc4c3c(cn4C)C[C@H]21, the Potency is reported as active: 21.3 µM.

Experiment: qHTS RealTime-Glo MT Cell Viability Assay in HEK293 cells - 8 hour (AID 1224887); note: nearly all actives have a fitted effect of over 50% in size; for activity change, negative = cytotoxicity: top concentration of the series differs between compounds
Conditions: RealTime-Glo luminescence; series mostly up to 76.8 µM; activity change, negative = cytotoxicity: at the top concentration
In short: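 Measured as luminescence from the same continuously cultured HEK293 wells at successive time points (0, 8, 16, 24, 32, 40 h) after compound addition. Reagent present from seeding; dosing at 5 h; incubation 37 C.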
With O=S(=O)(O)C(F)(F)C(F)(F)C(F)(F)C(F)(F)F the Potency was inconclusive: 23.2 µM [cytotoxic, single point].
In the case of C/C(=C\c1ccccc1)[N+](=O)[O-], the Potency is reported as inconclusive: 11 µM [cytotoxic, full curve].
With CN(C)C(=S)[S-].CN(C)C(=S)[S-].[Cu+2] the Potency was inconclusive: 2.12 µM [cytotoxic, full curve].
In the case of Clc1ccc(CO/N=C(\Cn2ccnc2)c2ccc(Cl)cc2Cl)c(Cl)c1, the Potency is reported as active: 19 µM.
In the case of CCCCCCCCCCCC[N+](C)(C)CCOc1ccccc1, the Potency is reported as active: 43.7 µM and active: 23.9 µM.
In the case of O=C(CCl)C(Cl)Cl, the Potency is reported as inconclusive: 19.7 µM [cytotoxic, partial curve].
In the case of Oc1c(Cl)c(Cl)cc(Cl)c1Cl, the Potency is reported as inconclusive: 47.6 µM [cytotoxic, partial curve].
For COP(=S)(OC)Oc1ccc(Sc2ccc(OP(=S)(OC)OC)cc2)cc1, the Potency was inconclusive: 24.5 µM [cytotoxic, partial curve].
With CC(c1ccccc1)(c1ccc(O)cc1)c1ccc(O)cc1 the Potency was inconclusive: 38.9 µM [cytotoxic, partial curve].
With C[C@]12CCC(=O)C=C1CC[C@@H]1[C@@H]2CC[C@@]2(C)[C@H]1CC[C@]2(C)O the Potency was inconclusive: 17.5 µM [cytotoxic, full curve] and inactive.
With O=C(CCl)c1ccccc1 the Potency was “inactive”.
For CN1C[C@H](CNC(=O)OCc2ccccc2)C[C@@H]2c3cccc4c3c(cn4C)C[C@H]21, the Potency was inconclusive: 23.9 µM [cytotoxic, partial curve].
